Columns and labels:
DRG neurons = assay: Calcium imaging of isolated DRG neurons; conditions: DRG neurons of EP4Avil−/− mice, with or without PGE2 pre-treatment
[1] = tested on: EP4Avil−/− mice and COX2OC−/− mice; assay: Propranolol rescue of bone loss in knockout mice (μCT of femurs); type: in vivo, mouse; conditions: 0.5 mg per kg per day propranolol for 6 weeks

`CCCCC[C@H](O)/C=C/[C@H]1[C@H](O)CC(=O)[C@@H]1C/C=C\CCCC(=O)O` [PGE2, prostaglandin E2] was tested, and the “DRG neuron activation, calcium imaging” value (DRG neurons) was “reduced significantly”.

`CC(C)NCC(O)COc1cccc2ccccc12` (stereo not drawn) [propranolol] was tested, and the “bone phenotype (μCT of femurs)” value ([1]; COX2OC−/− mice) was “partially rescued” and the “bone phenotype (μCT of femurs)” value ([1]; EP4Avil−/− mice) was “partially rescued”.

— patent US20210346328A1, “COMPOSITIONS AND METHODS FOR TREATING METABOLIC DISORDERS” (The Johns Hopkins University, priority 2018, published 2021)
